For 24 molecules, cell count results are on record in the supplement of paper PMC4604168 (melanoma cell lines).

Some of the results follow. Repeats are few or missing, and single values can be far off.

Among the test systems are WM115; WM1716; WM1745; WM3526; WM3619; WM451Lu.
What all share (experiment): cell count relative to DMSO control; melanoma cells; higher = more viable cells
Details in all cases: library dose: low library concentration; 72 h
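Also: cell number obtained by counting DAPI-stained nuclei in high-throughput microscope images with image analysis software, screen run in 1,536-well plates.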

Take `Cc1ccc(Nc2nccc(N(C)c3ccc4c(C)n(C)nc4c3)n2)cc1S(N)(=O)=O` [Pazopanib] + COc1ccc2c(c1)CCC1C2CCC2(C)C(NCCCCCCN3C(=O)C=CC3=O)CCC12 [U73122] (first compound 0.4 µM, partner dose 0.4 µM): the cell count in the assay with WM115 was 91.8%; with WM1716 it was 71.8%; in the assay with WM1745, 77.7%; with WM3526, 89.9%; in the assay with WM3619, 79.4%; in the assay on WM451Lu, 93.2%.
As for `CC1(C)CCC(c2ccc(Cl)cc2)=C(CN2CCN(c3ccc(C(=O)NS(=O)(=O)c4ccc(N[C@H](CCN5CCOCC5)CSc5ccccc5)c(S(=O)(=O)C(F)(F)F)c4)cc3)CC2)C1` + C#Cc1cccc(Nc2ncnc3cc(OCCOC)c(OCCOC)cc23)c1 [erlotinib] (first compound 0.4 µM, partner dose 0.8 µM), the cell count in the assay on WM115 was determined as 77.3%; in the assay on WM1716 it was 73.5%; in the assay on WM1745, 8.36%; in the assay on WM3526 it was 94%; in the assay with WM3619, 74%; in the assay on WM451Lu it was 97.2%.
`CC1(C)CCC(c2ccc(Cl)cc2)=C(CN2CCN(c3ccc(C(=O)NS(=O)(=O)c4ccc(N[C@H](CCN5CCOCC5)CSc5ccccc5)c(S(=O)(=O)C(F)(F)F)c4)cc3)CC2)C1` + O=C(O)c1ccc(-c2c[nH]c3ncc(-c4ccccc4)cc23)cc1C1CCCC1 [GSK650394] (first compound 0.4 µM, partner dose 0.16 µM): the cell count with WM115 was 87.2%; with WM1716 it was 72.6%; in the assay on WM1745 it was 10.7%; with WM3526 it was 75.3%; in the assay on WM3619, 75.9%; with WM451Lu, 71.9%.
`O=C(/C=C/c1cccnc1)NCCCCC1CCN(C(=O)c2ccccc2)CC1` + COc1cc2c(Oc3ccc4[nH]c(C)cc4c3F)ncnc2cc1OCCCN1CCCC1 [cediranib] (first compound 0.01 µM, partner dose 0.4 µM): the cell count in the assay on WM115 was found to be 85.8%; in the assay with WM1716, 96.8%; with WM1745 it was 95.1%; in the assay with WM3526, 94.4%; in the assay with WM3619, 93.6%; with WM451Lu it was 102%.
`CC1(C)CCC(c2ccc(Cl)cc2)=C(CN2CCN(c3ccc(C(=O)NS(=O)(=O)c4ccc(N[C@H](CCN5CCOCC5)CSc5ccccc5)c(S(=O)(=O)C(F)(F)F)c4)cc3)CC2)C1` + CS(=O)(=O)c1ccc(C(=O)Nc2ccc(Cl)c(-c3ccccn3)c2)c(Cl)c1 [vismodegib] (first compound 0.4 µM, partner dose 1 µM): the cell count in the assay on WM115 came out at 81.9%; in the assay with WM1716, 72.6%; in the assay on WM1745, 30.7%; in the assay on WM3526, 116%; in the assay with WM3619, 73.1%; in the assay on WM451Lu, 105%.
As for `CC1(C)CCC(c2ccc(Cl)cc2)=C(CN2CCN(c3ccc(C(=O)NS(=O)(=O)c4ccc(N[C@H](CCN5CCOCC5)CSc5ccccc5)c(S(=O)(=O)C(F)(F)F)c4)cc3)CC2)C1` + Oc1cc(-c2nc(-c3ccccc3)[nH]c2-c2ccncc2)ccc1Cl [L779450] (first compound 0.4 µM, partner dose 0.2 µM), the cell count in the assay with WM115 turned out to be 48.4%; with WM1716, 72.3%; in the assay with WM1745, 11%; in the assay on WM3526, 72%; with WM3619, 97.8%; with WM451Lu, 97.9%.
Regarding `Cc1ccc(Nc2nccc(N(C)c3ccc4c(C)n(C)nc4c3)n2)cc1S(N)(=O)=O` [Pazopanib] + CCCCCCCCc1ccc(CCC(N)(CO)CO)cc1 [fingolimod] (first compound 0.4 µM, partner dose 2 µM), the cell count in the assay on WM115 was determined as 78%; with WM1716, 71.7%; in the assay with WM1745, 95.7%; in the assay on WM3526, 89.1%; in the assay with WM3619 it was 83.3%; with WM451Lu, 88%.
On to `CC1(C)CCC(c2ccc(Cl)cc2)=C(CN2CCN(c3ccc(C(=O)NS(=O)(=O)c4ccc(N[C@H](CCN5CCOCC5)CSc5ccccc5)c(S(=O)(=O)C(F)(F)F)c4)cc3)CC2)C1` + NC(=O)Nc1cc(-c2cccc(F)c2)sc1C(=O)N[C@H]1CCCNC1 [AZD7762] (first compound 0.4 µM, partner dose 0.02 µM), for which the cell count in the assay with WM115 stood at 59.7%; with WM1716 it was 52.5%; in the assay on WM1745, 16.7%; in the assay with WM3526, 69.6%; in the assay on WM3619, 24.9%; with WM451Lu, 67.8%.
Consider `O=C(/C=C/c1cccnc1)NCCCCC1CCN(C(=O)c2ccccc2)CC1` + CC(C)C[C@H](NC(=O)[C@H](Cc1ccccc1)NC(=O)c1cnccn1)B(O)O [Bortezomib] (first compound 0.01 µM, partner dose 0.001 µM), for which the cell count was 91% in the assay on WM115; 69.2% with WM1716; 96.2% with WM1745; 85.8% with WM3526; 52.8% in the assay on WM3619; 90.7% with WM451Lu.
`O=C(/C=C/c1cccnc1)NCCCCC1CCN(C(=O)c2ccccc2)CC1` + CC1(C)CCC(c2ccc(Cl)cc2)=C(CN2CCN(c3ccc(C(=O)NS(=O)(=O)c4ccc(N[C@H](CCN5CCOCC5)CSc5ccccc5)c(S(=O)(=O)C(F)(F)F)c4)cc3)CC2)C1 [ABT263] (first compound 0.01 µM, partner dose 0.4 µM): the cell count was found to be 89.9% in the assay with WM115; 69.4% in the assay with WM1716; 18.1% in the assay with WM1745; 125% with WM3526; 48.7% in the assay with WM3619; 88.5% with WM451Lu.
For the molecule `Cc1ccc(Nc2nccc(N(C)c3ccc4c(C)n(C)nc4c3)n2)cc1S(N)(=O)=O` [Pazopanib] + Cc1cn(-c2cc(NC(=O)c3ccc(C)c(Nc4nccc(-c5cccnc5)n4)c3)cc(C(F)(F)F)c2)cn1 [nilotinib] (first compound 0.4 µM, partner dose 0.2 µM), the cell count with WM115 turned out to be 105%; in the assay on WM1716, 99.8%; in the assay on WM1745, 93.3%; with WM3526, 84.9%; in the assay on WM3619, 92%; with WM451Lu, 89.4%.
In the case of `O=C(/C=C/c1cccnc1)NCCCCC1CCN(C(=O)c2ccccc2)CC1` + CNC(=O)c1cc(Oc2ccc(NC(=O)Nc3ccc(Cl)c(C(F)(F)F)c3)cc2)ccn1 [sorafenib] (first compound 0.01 µM, partner dose 0.4 µM), the cell count worked out at 103% in the assay with WM115; 94.9% in the assay with WM1716; 102% in the assay with WM1745; 101% in the assay on WM3526; 81.1% with WM3619; 120% with WM451Lu.
Regarding `O=C(/C=C/c1cccnc1)NCCCCC1CCN(C(=O)c2ccccc2)CC1` + COc1ccc(C2=N[C@@H](c3ccc(Cl)cc3)[C@@H](c3ccc(Cl)cc3)N2C(=O)N2CCNC(=O)C2)c(OC(C)C)c1 [Nutlin-3] (first compound 0.01 µM, partner dose 0.1 µM), the cell count in the assay with WM115 worked out at 99.7%; in the assay on WM1716, 102%; in the assay on WM1745, 97.3%; in the assay on WM3526, 101%; with WM3619, 80.1%; in the assay with WM451Lu, 99.2%.
As for `CC1(C)CCC(c2ccc(Cl)cc2)=C(CN2CCN(c3ccc(C(=O)NS(=O)(=O)c4ccc(N[C@H](CCN5CCOCC5)CSc5ccccc5)c(S(=O)(=O)C(F)(F)F)c4)cc3)CC2)C1` + CCc1ccc(CCOc2ccc(CC3SC(=O)NC3=O)cc2)nc1 [pioglitazone] (first compound 0.4 µM, partner dose 2 µM), the cell count in the assay with WM115 is 86.4%; in the assay on WM1716 it was 79.8%; with WM1745 it was 14.9%; in the assay with WM3526 it was 95.1%; in the assay with WM3619 it was 76.3%; in the assay on WM451Lu, 84.5%.
In the case of `Cc1ccc(Nc2nccc(N(C)c3ccc4c(C)n(C)nc4c3)n2)cc1S(N)(=O)=O` [Pazopanib] + O=C(O)c1ccc2c(c1)nc(Nc1cccc(Cl)c1)c1ccncc12 [CX4945] (first compound 0.4 µM, partner dose 0.4 µM), the cell count with WM115 is 101%; in the assay on WM1716 it was 85.9%; with WM1745, 114%; with WM3526, 83.6%; in the assay on WM3619, 114%; in the assay with WM451Lu, 89.8%.
In the case of `CC1(C)CCC(c2ccc(Cl)cc2)=C(CN2CCN(c3ccc(C(=O)NS(=O)(=O)c4ccc(N[C@H](CCN5CCOCC5)CSc5ccccc5)c(S(=O)(=O)C(F)(F)F)c4)cc3)CC2)C1` + CC(C)C[C@H](NC(=O)[C@H](Cc1ccccc1)NC(=O)c1cnccn1)B(O)O [Bortezomib] (first compound 0.4 µM, partner dose 0.001 µM), the cell count in the assay with WM115 amounted to 73.6%; with WM1716 it was 17%; in the assay with WM1745, 4.66%; in the assay with WM3526, 74.4%; in the assay on WM3619 it was 9.75%; in the assay with WM451Lu, 76.4%.
For the molecule `Cc1ccc(Nc2nccc(N(C)c3ccc4c(C)n(C)nc4c3)n2)cc1S(N)(=O)=O` [Pazopanib] + C[C@@H](N)c1ccc(C(=O)Nc2ccnc3[nH]ccc23)cc1 [RKI983] (first compound 0.4 µM, partner dose 0.4 µM), the cell count was found to be 112% in the assay on WM115; 51.1% in the assay on WM1716; 111% in the assay with WM1745; 103% in the assay on WM3526; 104% with WM3619; 104% in the assay on WM451Lu.
Regarding `O=C(/C=C/c1cccnc1)NCCCCC1CCN(C(=O)c2ccccc2)CC1` + CCc1ccc(CCOc2ccc(CC3SC(=O)NC3=O)cc2)nc1 [pioglitazone] (first compound 0.01 µM, partner dose 2 µM), the cell count in the assay with WM115 amounted to 103%; in the assay on WM1716, 98.9%; in the assay on WM1745, 89.7%; with WM3526, 97.9%; with WM3619 it was 92.7%; with WM451Lu, 87.7%.
`Cc1ccc(Nc2nccc(N(C)c3ccc4c(C)n(C)nc4c3)n2)cc1S(N)(=O)=O` [Pazopanib] + CO[C@@H]1[C@H](N(C)C(=O)c2ccccc2)C[C@H]2O[C@]1(C)n1c3ccccc3c3c4c(c5c6ccccc6n2c5c31)C(=O)NC4 [Midostaurin] (first compound 0.4 µM, partner dose 0.08 µM): the cell count with WM115 amounted to 82.6%; in the assay with WM1716, 71.8%; in the assay on WM1745, 63.3%; with WM3526 it was 72.8%; with WM3619, 94.7%; in the assay on WM451Lu it was 85.5%.
For `CC1(C)CCC(c2ccc(Cl)cc2)=C(CN2CCN(c3ccc(C(=O)NS(=O)(=O)c4ccc(N[C@H](CCN5CCOCC5)CSc5ccccc5)c(S(=O)(=O)C(F)(F)F)c4)cc3)CC2)C1` + C[C@]1(O)C[C@@H](c2nc(-c3ccc4ccc(-c5ccccc5)nc4c3)c3c(N)nccn32)C1 [OSI906] (first compound 0.4 µM, partner dose 0.4 µM), the cell count in the assay with WM115 came out at 92.1%; with WM1716, 85.8%; with WM1745 it was 6.46%; in the assay with WM3526, 67.2%; in the assay with WM3619, 87.1%; in the assay on WM451Lu, 76.5%.
Take `Cc1ccc(Nc2nccc(N(C)c3ccc4c(C)n(C)nc4c3)n2)cc1S(N)(=O)=O` [Pazopanib] + C[C@@H]1CCN(C(=O)CC#N)C[C@@H]1N(C)c1ncnc2[nH]ccc12 [CP690550] (first compound 0.4 µM, partner dose 1 µM): the cell count was found to be 87.9% in the assay on WM115; 90.8% with WM1716; 113% in the assay with WM1745; 94.7% with WM3526; 101% with WM3619; 81% in the assay with WM451Lu.
In the case of `O=C(/C=C/c1cccnc1)NCCCCC1CCN(C(=O)c2ccccc2)CC1` + COc1ccc(COc2ccc(Cc3cnc(N)nc3N)cc2OC)cc1 [GW2580] (first compound 0.01 µM, partner dose 1 µM), the cell count was 96.7% in the assay on WM115; 95.3% in the assay with WM1716; 105% in the assay with WM1745; 106% in the assay with WM3526; 84.2% in the assay with WM3619; 94.1% with WM451Lu.
As for `O=C(/C=C/c1cccnc1)NCCCCC1CCN(C(=O)c2ccccc2)CC1` + Cn1cncc1[C@@](N)(c1ccc(Cl)cc1)c1ccc2c(c1)c(-c1cccc(Cl)c1)cc(=O)n2C [tipifarnib] (first compound 0.01 µM, partner dose 0.01 µM), the cell count is 74.4% with WM115; 76.6% in the assay with WM1716; 106% with WM1745; 86.6% in the assay on WM3526; 87.1% in the assay with WM3619; 97% in the assay with WM451Lu.
`O=C(/C=C/c1cccnc1)NCCCCC1CCN(C(=O)c2ccccc2)CC1` + COC(=O)c1sccc1S(=O)(=O)Nc1ccc(Nc2ccccc2)cc1OC [GSK0660] (first compound 0.01 µM, partner dose 1 µM): the cell count with WM115 is 87.2%; with WM1716, 94.6%; with WM1745, 108%; in the assay on WM3526, 85.3%; in the assay on WM3619, 83.7%; in the assay on WM451Lu, 97.6%.
